Several values for one entry are separate records, joined by “and”; a condition that tells them apart may be missing. Equal entries are not always repeated. In all, about 390,000 compounds went through this assay and about 17,000 (4.4%) were called active. The shares of active, inactive and inconclusive entries below differ from those in the screen. Calls come from the whole dose curve; as a rule, active = well fitted inhibition curve with a large enough effect; inconclusive = small, poorly fitted or top-dose-only effect; inactive = no such curve, though single readings can be large or run the other way. A potency beside an inconclusive call is a rough fit, not a confirmed value. Where a structure was tested more than once in an assay, its records may differ in their call.
The molecules below were run against Lysine-specific demethylase 4A (Homo sapiens) (UniProt O75164) (assay: qHTS Assay for Inhibitors of JMJD2A-Tudor Domain). Details: AlphaScreen JMJD2A-Tudor / H3K4me3 peptide binding; series mostly up to 114 µM.
Note: nearly all actives have a fitted effect of over 50% in size.
Potency is the fitted concentration of half-maximal effect; tags give direction and shape of the fitted curve.

UniProt O75164, sequence (O75164 whole entry, looked up, the tested form may be a part): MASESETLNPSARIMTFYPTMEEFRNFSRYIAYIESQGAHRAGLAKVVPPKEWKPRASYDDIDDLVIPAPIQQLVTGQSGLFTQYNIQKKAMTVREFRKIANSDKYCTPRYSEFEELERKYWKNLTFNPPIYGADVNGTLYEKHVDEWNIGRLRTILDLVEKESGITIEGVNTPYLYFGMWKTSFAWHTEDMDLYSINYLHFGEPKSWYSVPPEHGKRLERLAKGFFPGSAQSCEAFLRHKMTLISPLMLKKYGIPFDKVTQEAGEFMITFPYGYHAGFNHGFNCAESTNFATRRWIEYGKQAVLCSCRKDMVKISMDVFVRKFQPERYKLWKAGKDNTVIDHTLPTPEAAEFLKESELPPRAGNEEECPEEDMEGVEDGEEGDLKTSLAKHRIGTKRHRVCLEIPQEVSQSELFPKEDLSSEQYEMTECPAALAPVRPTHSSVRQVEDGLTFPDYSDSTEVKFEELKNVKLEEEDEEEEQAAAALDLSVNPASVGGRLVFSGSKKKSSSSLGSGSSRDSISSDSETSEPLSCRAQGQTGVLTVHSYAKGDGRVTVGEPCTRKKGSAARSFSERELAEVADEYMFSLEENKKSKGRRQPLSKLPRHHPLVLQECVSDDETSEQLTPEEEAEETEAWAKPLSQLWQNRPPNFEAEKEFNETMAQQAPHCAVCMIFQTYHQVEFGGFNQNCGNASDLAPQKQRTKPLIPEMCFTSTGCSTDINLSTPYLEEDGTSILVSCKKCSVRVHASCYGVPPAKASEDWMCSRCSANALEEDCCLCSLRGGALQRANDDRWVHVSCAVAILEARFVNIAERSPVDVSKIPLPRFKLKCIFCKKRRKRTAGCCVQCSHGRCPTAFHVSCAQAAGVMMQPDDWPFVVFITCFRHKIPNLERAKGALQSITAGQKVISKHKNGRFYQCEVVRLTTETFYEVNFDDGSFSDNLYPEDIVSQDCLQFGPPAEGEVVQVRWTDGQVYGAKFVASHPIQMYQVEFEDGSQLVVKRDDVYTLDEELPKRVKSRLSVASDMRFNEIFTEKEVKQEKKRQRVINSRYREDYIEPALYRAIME

SMILES	Potency
COc1ccc(/C=C(\C#N)C(=O)c2c(C)[nH]c3ccccc23)cc1OC	inconclusive: 25.1 µM [inhibitor, partial curve]
CCC/C=C1/CCCOC(C(=O)NCC2CC2)(C(F)(F)F)C1 (stereo not drawn)	inactive
O=C(COc1ccccc1)NCC(c1ccco1)N1CCN(c2ccccc2)CC1 (stereo not drawn)	inconclusive: 44.7 µM [inhibitor, partial curve, poor fit]
CC1(CCBr)C(=O)N(c2ccccc2)c2ccccc21 (stereo not drawn)	inactive
CCOc1cc(/C=N/O)ccc1OCc1ccc(F)cc1	active: 28.2 µM
CN1C2C=C(N(CCc3c[nH]c4ccccc34)C(=O)c3ccc(Cl)cc3)CC1CC2 (stereo not drawn)	inconclusive: 35.5 µM [inhibitor, partial curve, poor fit]
CCOc1ccc(CNC(=O)CN2C(=O)CSc3ccc(S(=O)(=O)N4CCOCC4)cc32)cc1OC	inactive
CCN(CCCNC(=O)CCCN1C(=O)COc2ccc(C)cc21)c1cccc(C)c1	inconclusive: 28.2 µM [inhibitor, full curve]
N#Cc1ccc(N2CCc3ccccc3C2)c([N+](=O)[O-])c1	inconclusive: 20 µM [inhibitor, partial curve]
Cc1sc(NC(=O)c2ccco2)c(CN2CCN(c3ccccn3)CC2)c1C	inconclusive: 28.2 µM [inhibitor, full curve]
Cc1cc2oc(C(=O)N(Cc3ccc(N(C)C)cc3)CC3CCCO3)c(C)c2cc1C (stereo not drawn)	active: 12.6 µM
O=C(NCc1ccc(Cl)cc1)C1(c2cccs2)CCOCC1	inactive
Cc1cc(Nc2ccc(Br)c(C)c2)n2nc(C)nc2n1	inconclusive: 14.1 µM [inhibitor, full curve]
COc1ccc(C2/C(=C(/O)c3ccccc3)C(=O)C(=O)N2CC(C)O)c(OC)c1 (stereo not drawn)	active: 17.8 µM
Cc1ccc(NCc2n[nH]c(=S)n2-c2cccc(Cl)c2)cc1	inconclusive: 89.1 µM [inhibitor, single point]
CC(=O)NC(CC(=O)N(Cc1ccccc1)c1cccc(C)c1)c1ccccc1 (stereo not drawn)	inactive
CCOC(=O)C1(C)C=C(Nc2ccc(O)cc2)C(=O)N1c1ccc(O)cc1 (stereo not drawn)	inconclusive: 89.1 µM [inhibitor, single point]
CCCCc1ccc(N=N/C(C(=O)Nc2ccc(NC(C)=O)cc2OC)=C(/C)O)cc1	inconclusive: 11.2 µM [inhibitor, full curve]
CCOC(=O)C1=C(N)n2c(s/c(=C\c3ccco3)c2=O)=C(C(=O)OCC)C1c1ccco1 (stereo not drawn)	inconclusive: 31.6 µM [inhibitor, partial curve]
CCn1c(CSc2nc3ccccc3s2)nnc1SCC(=O)c1ccc(O)c(O)c1	active: 44.7 µM
CCC(C)N1CCC2(CC1)N=c1c(c3c4c5c(C)c(O)c3c(O)c1=NC(=O)C(C)=CC=C[C@H](C)[C@H](O)[C@@H](C)[C@@H](O)[C@@H](C)[C@H](OC(C)=O)[C@H](C)[C@@H](OC)C=CO[C@@](C)(O5)C4=O)N2 (stereo partly drawn)	inconclusive: 50.1 µM [inhibitor, partial curve]
Cn1c2ccccc2c2c(C(=O)NCC3CCCO3)cn(C3CCCC3)c(=O)c21 (stereo not drawn)	inconclusive: 79.4 µM [inhibitor, single point]
COc1ccc(C2=NN(c3nc(-c4ccccc4)c(CC(=O)O)s3)C(c3ccco3)C2)cc1 (stereo not drawn)	active: 79.4 µM

SMILES	Potency
O=S1(=O)[C@H]2C[C@H](CO)O[C@@]2(CO)CN1Cc1ccc(-c2cccc(Cl)c2)cc1	inactive
Cc1cccc(-n2c(SCc3ccc([N+](=O)[O-])cc3)nnc2-c2c[nH]c3ccccc23)c1	inconclusive: 17.8 µM [inhibitor, full curve]
COC(=O)C1=C(C(=O)OC)SC2(S1)C(C(=O)OC)=C(C(=O)OC)SC1=C2c2cc(C)ccc2NC1(C)C	active: 56.2 µM
CCOC(=O)C1CCN(C(=O)Cn2nc(CC)n3c(cc4occc43)c2=O)CC1	inactive
Cc1ccc(NC(=O)CSc2nnc(-c3ccco3)o2)cc1	inactive
CCSc1nnc(Cn2c(=O)sc3ccccc32)n1C	inconclusive: 14.1 µM [inhibitor, full curve, poor fit]
C/C(=N/NC(=O)CNC(=O)c1ccccc1F)c1ccc2c(c1)CCCC2	active: 31.6 µM
Cc1cc(C(=O)COC(=O)CNC(=O)c2ccccc2)c(C)n1CC1CCCO1 (stereo not drawn)	inconclusive: 2.82 µM [inhibitor, full curve, poor fit]
O=C(C=Cc1cccnc1)c1ccccc1	inactive
O=C(CCNC(=O)c1ccc(Br)cc1)Nc1ccccc1N1CCCCC1	inactive
COc1ccccc1Nc1nc(-c2cccc([N+](=O)[O-])c2)nc2ccccc12	inconclusive: 89.1 µM [inhibitor, single point]
COc1cccc(-n2c(=S)sc3c(=O)n(-c4ccccc4OC)c(=S)[nH]c32)c1	inconclusive: 79.4 µM [inhibitor, partial curve]
COc1ccc(Cn2c(C)nc3ccc([N+](=O)[O-])cc3c2=O)cc1	inconclusive: 63.1 µM [inhibitor, partial curve]
Cc1[nH]n(-c2ccccc2)c(=O)c1N=Nc1cccc(C(=O)O)c1	inconclusive: 70.8 µM [inhibitor, partial curve, poor fit]
Cc1ccc(S(=O)(=O)N(C)c2ccc(C(=O)N3CCN(Cc4ccc5c(c4)OCO5)CC3)cc2)cc1	inconclusive: 28.2 µM [inhibitor, partial curve]
COC(=O)c1ccc(CSc2nc3c(c(=O)n2-c2ccccc2)SCC3)o1	inconclusive: 63.1 µM [inhibitor, partial curve]
COc1ccc(-c2noc(C3CCCN(C(=O)Nc4ccccc4F)C3)n2)cc1 (stereo not drawn)	inactive
CN1CCN(C(=O)C2CCC(CNS(=O)(=O)c3cccc4cccnc34)CC2)CC1 (stereo not drawn)	inactive
OCCN(Cc1ccccc1)Cc1ccc(C(F)(F)F)cc1	active: 7.94 µM
CC(C)c1nc(SCC(=O)Nc2nc3c(s2)CCCC3)c2ccccc2n1	inconclusive: 31.6 µM [inhibitor, partial curve]
CCN(c1ccccc1)S(=O)(=O)c1cccc(C(=O)NCC(c2ccc(F)cc2)N2CCOCC2)c1 (stereo not drawn)	inactive
Cc1ccc(-n2ncc(C(=O)N3CCN(c4cccc(C)c4C)CC3)c2C2CCNCC2)c(C)c1	inconclusive: 79.4 µM [inhibitor, partial curve]
CCOc1cc(C(=O)N/N=C/C(Br)=C/c2ccccc2)cc(OCC)c1OCC	inactive

SMILES	Potency
Cc1cccc(C(=O)Nc2cc(S(=O)(=O)N3CCOCC3)ccc2N2CCCCC2)c1	inactive
COc1ccccc1OCC(=O)Sc1ccc(C)cc1	inactive
CN(C)CCCN(C(=O)c1ccc(S(=O)(=O)N2CCc3ccccc32)cc1)c1nc2c(Cl)cccc2s1	inconclusive: 28.2 µM [inhibitor, full curve]
CCOC(=O)NC1(Nc2cccc(Cl)c2)Oc2ccccc2O1	active: 39.8 µM
CN1CCN(S(=O)(=O)c2ccc(Nc3ccc(F)cc3)c([N+](=O)[O-])c2)CC1	inconclusive: 39.8 µM [inhibitor, partial curve]
COc1ccc(-c2coc3c(CN4CCCCC4C)c(O)ccc3c2=O)cc1 (stereo not drawn)	inactive
Cc1cccc(N(CC(=O)NCC2CCCO2)C(=O)CCC(=O)Nc2cc(C)on2)c1 (stereo not drawn)	inconclusive: 79.4 µM [inhibitor, partial curve]
Cn1c(SCc2n[nH]c(=S)o2)nnc1-c1ccccc1	inconclusive: 14.1 µM [inhibitor, partial curve]
CN(C)CCN(C(=O)c1ccc(S(=O)(=O)N(C)c2ccccc2)cc1)c1nc2cc3c(cc2s1)OCO3	inconclusive: 22.4 µM [inhibitor, full curve]
C[c-]1[c-](C)[c-](C)[c-](C)[c-]1C.[Fe].c1cc2nccc(N3CCCC3)[c-]2c1 (stereo not drawn)	active: 50.1 µM and active: 44.7 µM
S=c1[nH]nc(Cc2ccccc2)n1-c1cccc2ccccc12	active: 25.1 µM
Cc1cc(C)c2oc(C(=O)Nc3nc4ccc(Cl)cc4s3)cc(=O)c2c1	inactive
Cc1ccc(-n2ccnc(NCc3cccs3)c2=O)cc1C	inconclusive: 70.8 µM [inhibitor, single point]
COc1cccc(NS(=O)(=O)c2ccc3[nH]cc(C(=O)NCCc4ccc(C)cc4)c(=O)c3c2)c1	inconclusive: 56.2 µM [inhibitor, partial curve, poor fit]
COc1ccc(Cl)cc1S(=O)(=O)N1CCCC1=O	inconclusive: 35.5 µM [inhibitor, full curve]
CN1CCN(/N=C/c2ccc(OCc3ccccc3)cc2)CC1	inconclusive: 63.1 µM [inhibitor, partial curve]
Cn1c2ccccc2c2c(C(=O)N3CCN(c4cccc(C(F)(F)F)c4)CC3)cn(C3CCCCC3)c(=O)c21	inactive
Cc1cc(C(=O)NN=C2CCCCCC2)c(C)o1	inactive
CC1(C)C2CC[C@]3(C)C(CC=C4[C@@H]5C[C@@](C)(CO)CC[C@]5(C(=O)O)CC[C@]43C)[C@@]2(C)CC[C@@H]1O (stereo partly drawn)	inconclusive: 89.1 µM [inhibitor, single point]
CCC(C(=O)Nc1cc(OC)ccc1OC)n1nc(-c2ccccc2)c2c(c1=O)CCCC2 (stereo not drawn)	inconclusive: 20 µM [inhibitor, full curve]
Cc1c(-c2ccc(Cl)cc2Cl)nc2ccccc2c1C(=O)NCCN1CCOCC1	inconclusive: 3.98 µM [inhibitor, single point]
COc1ccc(-n2c(Cc3ccccc3)nnc2SCc2ccc([N+](=O)[O-])cc2)cc1	inconclusive: 17.8 µM [inhibitor, partial curve]

From PubChem BioAssay AID504339 (National Center for Advancing Translational Sciences (NCATS), 2011)
